# According to the supplement of paper PMC12217912:
# This is one part of the list. The full chains were built here from the parent and the listed change. Values near 0.05 are background.
# B1: TEV protease; numbered along this chain (parent)
# chain: MGESLFKGPRDYNPISSSICHLTNESDGHTTSLYGIGFGPFIITNKHLFRRNNGTLVVQSLHGVFKVKDTTTLQQHLVDGRDMIIIRMPKDFPPFPQKLKFREPQREERICLVTTNFQTKSMSSMVSDTSCTFPSGDGIFWKHWIQTKDGQCGSPLVSTRDGFIVGIHSASNFTNTNNYFTSVPKNFMELLTNQEAQQWVSGWRLNADSVLWGGHKVFMVKPEEPFQPVKEATQL
# Variants of: B1
# Test: raw area under fraction-flipped curve 0-4 h after induction (AUC4h, not background-subtracted), DNA-recorder readout of cleavage of the substrate (dimensionless); higher = more cleavage of the substrate by the protease variant
# Settings: temperature: 34 °C; time window: 0-4 h after rhamnose induction
# Procedure: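 In vivo DNA recorder in E. coli TOP10(DE3) ΔrhaA at 34 °C. Each TEVp single-site mutant (parent TEVp 0) is paired with a single-site variant of the 7-mer TEVs (canonical ENLYFQ|S). The substrate sits between flexible linkers in a Bxb1-sfGFP-TEVs-SsrA fusion, so cleavage stabilises Bxb1 and speeds flipping of a recombination array, read by NGS. The value is the raw area under the fraction-flipped curve over 0-4 h after rhamnose induction (AUC4h), with ≥20 reads per time point. It is not background-subtracted; inactive controls average about 0.047.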
# 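Also: Bxb1 expression induced with 0.2% (w/v) L-rhamnose at OD600 near 0.5, cultures sampled hourly, flipped fraction per protease–substrate barcode pair counted by paired-end Illumina sequencing.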
Variant,area with substrate ENLYAQS,area with substrate ENLYDQS,area with substrate ENLYEQS,area with substrate ENLYGQS,area with substrate ENLYHQS,area with substrate ENLYIQS,area with substrate ENLYKQS,area with substrate ENLYLQS,area with substrate ENLYMQS,area with substrate ENLYNQS,area with substrate ENLYPQS,area with substrate ENLYQQS,area with substrate ENLYRQS,area with substrate ENLYSQS,area with substrate ENLYTQS,area with substrate ENLYVQS,area with substrate ENLYWQS,area with substrate ENLYYQS,area with substrate ENLYCQS
N45V,0.0658,0.0595,0.0599,0.0504,0.0576,0.0587,0.0583,0.0851,0.0643,0.0605,0.0662,0.0601,0.063,0.0673,0.0627,0.0643,0.0565,0.0526,
T72D,0.0713,,0.0661,,0.0645,0.117,0.0584,,0.0722,0.058,0.0674,,,,0.0726,0.088,0.0743,,
H47L,0.0601,0.0676,0.0664,0.0465,0.0572,0.0535,0.0588,,0.0665,0.0582,0.0615,0.065,,0.0662,0.0469,0.0661,0.0614,0.0678,0.0537
H47N,0.0618,0.0711,0.0657,0.0851,0.0576,0.0582,0.0568,,0.0614,0.0612,0.0454,0.052,0.0401,,0.0918,0.0649,0.0497,0.0593,
H47F,0.0357,0.0666,0.0578,0.0599,0.0551,0.058,0.0293,,0.0605,0.0555,0.0757,0.0507,0.068,0.065,0.0647,0.0699,0.0648,,0.075
H47Y,0.0607,0.0628,0.0508,0.0651,0.0554,,0.0541,,0.0427,0.0543,0.0598,0.0595,,0.0776,0.0649,0.0621,0.0559,0.0415,0.0593
H62D,0.0563,0.0592,0.0752,0.0607,0.0585,0.104,0.0578,,0.087,0.0682,0.0737,0.0571,,0.0756,0.0821,0.104,0.0901,0.0775,
H62F,0.0792,,0.0627,,0.0697,0.144,0.0526,,,0.0725,0.0738,0.07,0.0585,0.0843,,0.042,0.079,,
F49R,0.0667,0.063,0.0664,0.0578,0.0424,0.0582,0.0453,,0.0559,0.055,0.0614,,0.0655,0.0593,,0.0621,,,0.0577
F49P,0.0648,0.0644,0.0654,0.0996,0.057,0.0525,0.0693,,0.0592,0.0553,0.0532,0.0636,0.0579,0.0612,0.0567,0.0518,0.0557,0.0401,
F49G,0.064,0.0549,0.0567,0.0486,0.0614,0.0455,0.0511,0.0854,0.0502,0.0564,0.0575,0.0513,,0.0609,0.0706,0.0506,0.0445,0.0561,0.0526
G39W,0.0445,,0.043,0.0425,0.0425,,0.0613,,0.0371,0.0495,0.045,0.0574,0.0487,,0.0158,,0.0511,,
G39Q,0.0303,0.0286,0.0445,0.0241,0.0457,0.0428,0.0537,,0.0355,0.0411,,0.0379,0.0484,0.0473,,0.0602,0.0409,0.0242,
T44W,0.0447,0.0657,0.05,0.0528,0.0467,0.0426,,0.0497,0.0292,0.0439,0.061,0.0796,0.0657,0.0386,0.0393,0.0465,0.0471,0.0469,0.0504
G54H,0.106,0.0601,0.0639,0.0567,0.0646,0.0529,0.0606,0.0527,0.0628,0.0617,,0.0598,0.0679,0.0655,0.0619,0.068,0.0573,0.0551,0.0747
G37P,0.052,0.0322,0.05,,,0.0536,0.0223,,0.0529,0.0605,0.0522,0.0474,0.0731,,0.0349,0.0629,,,
V57L,0.105,,0.0456,,0.0621,0.123,,,,0.072,0.0817,,0.0791,0.0758,,,0.0608,0.0674,0.0935
V57W,0.0728,0.066,0.0653,0.0609,0.0648,0.105,0.0636,,0.0526,0.0686,0.0767,0.0666,0.0628,0.0726,,,0.0805,0.0655,0.0627
V57G,0.0827,,0.0534,0.0621,0.0565,,0.0634,,0.0973,0.0652,,,,0.0689,,0.105,,0.0608,
V78C,0.075,0.0669,0.0667,0.057,0.0717,,0.0649,0.0909,0.0816,0.0628,0.0751,0.0642,,0.0649,0.0699,0.103,,0.0217,0.0762
V78S,0.0752,0.0584,,0.0568,,0.0834,0.0565,0.0689,0.039,0.0475,0.0743,0.0329,0.0529,,0.0641,0.0556,0.0785,0.0697,
D69W,0.0758,,0.0702,0.0416,0.0627,,0.0672,,0.0661,0.0531,,0.0797,0.0364,0.07,0.0725,0.145,,,
D69L,0.0595,0.0693,0.0474,0.0838,0.0616,0.0696,0.0819,0.0669,0.0666,0.0568,0.0732,0.0558,0.0598,0.0633,0.0645,0.0816,0.0679,,
